Results are given in words; binding and its absence hold for the method and conditions named. Binding seen in cells or lysates may run through a third protein. Some entries that bind do so weakly or less than the wild type. For part of these data: Tags and fused reporters may be left off the sequences shown.
Tests used:
[1] = molecular target: T1, GFP-tagged ZDHHC21 (mouse) (UniProt Q9D270); experiment: co-IP; N1E-115 cells co-expressing HA-tagged 5-HT1AR and GFP-tagged ZDHHC; IP with anti-GFP antibody, western blot with anti-HA antibody
T1 sequence: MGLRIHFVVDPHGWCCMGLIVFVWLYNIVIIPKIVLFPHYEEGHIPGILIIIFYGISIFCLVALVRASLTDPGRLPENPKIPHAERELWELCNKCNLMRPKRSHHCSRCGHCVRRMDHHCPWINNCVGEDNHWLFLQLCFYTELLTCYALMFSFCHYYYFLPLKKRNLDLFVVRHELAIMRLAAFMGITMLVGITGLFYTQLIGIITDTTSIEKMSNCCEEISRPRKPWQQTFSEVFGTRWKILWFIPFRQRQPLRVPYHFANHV

The chains behind the UniProt entries cited, without tags or fusion partners.
UniProt Q8VDZ4: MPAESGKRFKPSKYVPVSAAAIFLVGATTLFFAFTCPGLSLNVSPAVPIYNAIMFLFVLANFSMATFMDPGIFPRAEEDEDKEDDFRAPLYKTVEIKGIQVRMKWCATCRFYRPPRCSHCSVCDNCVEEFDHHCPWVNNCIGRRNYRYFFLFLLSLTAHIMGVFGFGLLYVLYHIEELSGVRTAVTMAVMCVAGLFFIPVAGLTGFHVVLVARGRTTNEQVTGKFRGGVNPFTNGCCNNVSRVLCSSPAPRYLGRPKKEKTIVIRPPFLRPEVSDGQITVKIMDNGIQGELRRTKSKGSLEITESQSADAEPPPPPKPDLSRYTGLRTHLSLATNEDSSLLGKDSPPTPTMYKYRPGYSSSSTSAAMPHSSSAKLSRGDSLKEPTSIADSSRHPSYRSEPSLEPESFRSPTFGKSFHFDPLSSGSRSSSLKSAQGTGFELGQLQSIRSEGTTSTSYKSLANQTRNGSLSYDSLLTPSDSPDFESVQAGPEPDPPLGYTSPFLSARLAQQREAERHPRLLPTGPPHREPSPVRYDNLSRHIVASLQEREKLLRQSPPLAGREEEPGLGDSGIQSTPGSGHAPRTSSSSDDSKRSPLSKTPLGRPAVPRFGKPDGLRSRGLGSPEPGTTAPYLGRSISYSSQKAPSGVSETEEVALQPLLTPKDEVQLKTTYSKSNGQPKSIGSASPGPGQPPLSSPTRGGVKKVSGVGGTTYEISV
UniProt P59268: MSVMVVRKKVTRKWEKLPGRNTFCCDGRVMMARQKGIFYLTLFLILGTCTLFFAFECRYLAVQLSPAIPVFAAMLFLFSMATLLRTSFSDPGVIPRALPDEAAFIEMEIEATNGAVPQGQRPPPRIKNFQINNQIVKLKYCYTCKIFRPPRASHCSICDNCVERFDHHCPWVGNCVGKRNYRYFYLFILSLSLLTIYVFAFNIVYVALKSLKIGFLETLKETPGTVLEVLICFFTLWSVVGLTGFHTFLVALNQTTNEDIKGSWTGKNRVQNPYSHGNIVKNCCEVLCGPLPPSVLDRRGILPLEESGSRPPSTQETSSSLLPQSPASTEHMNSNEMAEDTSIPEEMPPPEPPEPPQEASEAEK
UniProt Q64264: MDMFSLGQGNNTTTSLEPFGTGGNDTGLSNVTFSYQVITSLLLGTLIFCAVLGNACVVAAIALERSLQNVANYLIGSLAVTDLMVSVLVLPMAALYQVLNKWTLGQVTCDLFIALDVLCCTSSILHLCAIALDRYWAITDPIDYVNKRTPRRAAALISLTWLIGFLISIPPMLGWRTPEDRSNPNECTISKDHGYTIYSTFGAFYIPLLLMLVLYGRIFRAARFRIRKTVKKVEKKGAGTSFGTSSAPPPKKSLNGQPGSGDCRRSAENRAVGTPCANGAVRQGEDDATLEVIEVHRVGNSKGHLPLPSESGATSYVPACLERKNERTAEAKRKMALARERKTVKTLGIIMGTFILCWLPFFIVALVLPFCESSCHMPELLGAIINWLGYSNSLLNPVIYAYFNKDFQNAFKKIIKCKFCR

[2] = molecular target: GFP-tagged ZDHHC5 (mouse) (UniProt Q8VDZ4); experiment: as above
[3] = molecular target: GFP-tagged ZDHHC9 (mouse) (UniProt P59268); experiment: as above
[4] = molecular target: T1, GFP-tagged ZDHHC21 (mouse); experiment: condition: only cells that expressed only one of the proteins were mixed prior to lysis ("mix" samples); co-IP; "mix" control: cells that expressed only one of the proteins (HA-5-HT1AR or GFP-tagged ZDHHC) mixed prior to lysis; IP with anti-GFP antibody, western blot with anti-HA antibody
[5] = molecular target: GFP-tagged ZDHHC5 (mouse) (UniProt Q8VDZ4); experiment: as above
[6] = molecular target: GFP-tagged ZDHHC9 (mouse) (UniProt P59268); experiment: as above

binding [1]: binds
binding [2]: binds
binding [3]: binds
binding [4]: no binding
binding [5]: no binding
binding [6]: no binding
Substance: HA-tagged serotonin 1A receptor (5-HT1AR) (from UniProt Q64264 1-421)
